# Data as given in the supplement of paper PMC10670038.
# Structures can show the parent of a compound that is named as a salt. ± gives the standard deviation of the averaged measurements. Whole data set: some 2,000 compounds, median “relative cell viability vs DMSO, compound alone” near 1.1, cut for the lowest 2% near 0.29. The list shows a part of the results.
# Tested on: TE10
# Assay: relative cell viability vs DMSO, compound alone (fraction); TE10 is an esophageal squamous carcinoma line; higher = less cytotoxic
# Details: 2 µM; 48 h
# Procedure: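 TE10 ESCC cells (1,000/well, 384-well plates) were treated with Selleck bioactive library compounds at 2 uM alone for 48 h. Viability was read by CellTiter-Glo and expressed relative to DMSO wells. Two technical replicates (A, B).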
row,SMILES,relative cell viability
1,O=C(c1cccc(Cl)c1F)N1CCN(Cc2cccc(Nc3nccs3)n2)CC1,0.949 ± 0.034
2,CC(C)[C@H]1C(=O)N[C@@H](CCCNC(=N)N)C(=O)NCC(=O)N[C@@H](CC(=O)O)C(=O)N[C@H](Cc2ccccc2)C(=O)N1C [Cilengitide],1.12 ± 0.071
3,CC(C)(C)c1[nH]cnc1/C=c1\[nH]c(=O)/c(=C/c2ccccc2)[nH]c1=O [Plinabulin (NPI-2358)],0.8774 ± 0.0029
4,Cn1c(=O)cc(N2CCC[C@@H](N)C2)n(Cc2cc(F)ccc2C#N)c1=O [Trelagliptin],1.1 ± 0.018
5,N#Cc1ccc(-c2c(-c3ncn[nH]3)sc(N3CCOCC3)c2C#N)c(F)c1,0.652 ± 0.025
6,COc1ccc(C(=O)CC2(O)C(=O)Nc3c(Cl)ccc(Cl)c32)cc1 (centres undefined),0.822 ± 0.059
7,O=C(NC1CCN(CCCCC2(C(=O)NCC(F)(F)F)c3ccccc3-c3ccccc32)CC1)c1ccccc1-c1ccc(C(F)(F)F)cc1 [Lomitapide],1.09 ± 0.042
8,O=C(NC1CCN(CCCCC2(C(=O)NCC(F)(F)F)c3ccccc3-c3ccccc32)CC1)c1ccccc1-c1ccc(C(F)(F)F)cc1 [Lomitapide Mesylate],0.9169 ± 0.0071
9,CC(C)(C)Cn1c(N)nc2ccc(-c3[nH]c(C(C)(C)C)nc3-c3ccc(F)cc3)nc21,1.18 ± 0.086
10,CCCN[C@H]1CCc2nc(N)sc2C1 [Pramipexole dihydrochloride monohydrate],0.8668 ± 0.0029
11,CCCN[C@H]1CCc2nc(N)sc2C1 [Pramipexole],1.11 ± 0.049
12,COc1cccc(-c2ccc(NC(=O)C3=C(C(=O)O)CCC3)c(F)c2)c1 [Vidofludimus],1.07 ± 0.11
13,Clc1cccc(-c2nnnn2Cc2cccnc2)c1Cl,1.12 ± 0.059
14,C/C=C1/[C@H](O[C@@H]2O[C@H](CO)[C@@H](O)[C@H](O)[C@H]2O)OC=C(C(=O)OC)[C@H]1CC(=O)OCCc1ccc(O)c(O)c1 [Oleuropein],0.87 ± 0.04
15,Cc1cc(=O)oc2cc(O)ccc12 [4-Methylumbelliferone (4-MU)],1.106 ± 0.0097
16,O=C(Nc1ccc(OC(F)(F)F)cc1)c1sccc1NCc1ccnc2ccccc12,1.22 ± 0.039
17,COc1cc(/C=C/C(=O)N2CCN(CC(=O)N3CCCC3)CC2)cc(OC)c1OC [Cinepazide maleate],1.17 ± 0.029
18,Nc1ncn([C@@H]2O[C@H](CO)[C@@H](O)[C@H]2O)c(=O)n1 [Azacitidine],1.11 ± 0.068
19,CC(COc1ccccc1)N(CCCl)Cc1ccccc1 (centres undefined) [Phenoxybenzamine HCl],1.01 ± 0.013
20,CCCNC(C)C(=O)Nc1ccccc1C (centres undefined) [Prilocaine],1.02 ± 0.11
21,CC(=O)Nc1cccc2c1c(Sc1ccc(Cl)cc1)c(C)n2CC(=O)O,1.1 ± 0.036
22,Cc1c(-c2ccnn2C)cc(C(=O)NCc2ccc(S(C)(=O)=O)cn2)c(=O)n1-c1cccc(C(F)(F)F)c1 [Alvelestat (AZD9668)],0.9353 ± 0.0011
23,O=C(Nc1cccc2cccnc12)c1ccc(N2C(=O)C3C4C=CC(C4)C3C2=O)cc1 (stereo not drawn) [IWR-1-endo],1.09 ± 0.053
24,CC1(C)CC(=O)c2c(C(F)(F)F)nn(-c3ccc(C(N)=O)c(N[C@H]4CC[C@H](O)CC4)c3)c2C1,0.547 ± 0.015
25,O=C(O)/C=C/c1ccc(O)c(O)c1 [Caffeic Acid],1.105 ± 0.0066

row,SMILES,relative cell viability
1,CCCCc1nc2cc(/C=C/C(=O)NO)ccc2n1CCN(CC)CC [Pracinostat (SB939)],0.371 ± 0.022
2,Oc1ccc2ccccc2c1SSc1c(O)ccc2ccccc12,1.06 ± 0.031
3,COc1cc2nc(N(C)CCCNC(=O)C3CCCO3)nc(N)c2cc1OC (centres undefined) [Alfuzosin HCl],1.26 ± 0.038
4,N#CSc1cc(SC#N)c(N)nc1N,1.05 ± 0.034
5,CCCCCOc1ccc(-c2cc(-c3ccc(C(=O)N[C@H]4C[C@@H](O)[C@@H](O)NC(=O)[C@@H]5[C@@H](O)[C@@H](C)CN5C(=O)[C@H]([C@H](O)CC(N)=O)NC(=O)[C@H]([C@H](O)[C@@H](O)c5ccc(O)c(OS(=O)(=O)O)c5)NC(=O)[C@@H]5C[C@@H](O)CN5C(=O)[C@H]([C@@H](C)O)NC4=O)cc3)no2)cc1 [Micafungin Sodium],1.02 ± 0.032
6,CC(C)n1nc(-c2ccc3oc(N)nc3c2)c2c(N)ncnc21,0.371 ± 0.0077
7,O=C(O)c1cc(C(F)(F)F)ccc1N1CC[C@H](OCc2ccccn2)C1,1.03 ± 0.17
8,CC(=O)Nc1nc2c(Oc3cc(-c4ccc(C(F)(F)F)cc4)ncn3)cccc2s1,1.07 ± 0.032
9,N[C@@H](Cc1c[nH]c2ccc(O)cc12)C(=O)O [5-hydroxytryptophan (5-HTP)],1.12 ± 0.021
10,Cc1[nH]c2ccccc2c1C1=C(NCCc2ccc(F)cc2)C(=O)N(C)C1=O,1.19 ± 0.06
11,N=C(N)Nc1ccc(C(=O)Oc2ccc3cc(C(=N)N)ccc3c2)cc1 [Nafamostat Mesylate],0.943 ± 0.15
12,O=C(NO)c1cccc(C(=O)NCCc2ccccc2)c1,1.17 ± 0.047
13,CCCSc1nc(N[C@@H]2C[C@H]2c2ccc(F)c(F)c2)c2nnn([C@@H]3C[C@H](OCCO)[C@@H](O)[C@H]3O)c2n1 [Ticagrelor],1.02 ± 0.059
14,C=CC(=O)Nc1cccc(Nc2nc(Nc3ccc(Oc4ccnc(C(=O)NC)c4)cc3)ncc2F)c1,1.08 ± 0.05
15,O=C(O)COCCN1CCN(C(c2ccccc2)c2ccc(Cl)cc2)CC1 (centres undefined) [Cetirizine DiHCl],1.18 ± 0.12
16,Cc1cc(C)c(-c2csc(NC(=O)c3ccccc3)n2)c(C)c1,1.13 ± 0.029
17,COc1ccc(-c2ccc3ncc4c(c3c2)n(-c2ccc(N3CCNCC3)c(C(F)(F)F)c2)c(=O)n4C)cn1,0.0662 ± 0.0018
18,CC(C)c1cc(-c2n[nH]c(=O)n2-c2ccc3c(ccn3C)c2)c(O)cc1O [Ganetespib (STA-9090)],0.59 ± 0.018
19,CC(=O)O[C@]1(C(C)=O)CC[C@H]2[C@@H]3C=C(Cl)C4=CC(=O)[C@@H]5C[C@@H]5[C@]4(C)[C@H]3CC[C@@]21C [Cyproterone Acetate],1.166 ± 0.0044
20,Cc1ncc(CO)c(CO)c1O [Pyridoxine HCl],1.12 ± 0.03
21,O=C(O)c1ccc(-c2c[nH]c3ncc(-c4ccccc4)cc23)cc1C1CCCC1,1.101 ± 0.0019
22,C[C@H](O)[C@H](O)[C@@H](O)[C@@H](O)C=O [L-(+)-Rhamnose Monohydrate],1.09 ± 0.058
23,Cc1ccc(NCCCc2ccccc2)c(N)c1,1.18 ± 0.018
24,C=CC(=O)Nc1cc(Nc2nccc(-c3cn(C)c4ccccc34)n2)c(OC)cc1N(C)CCN(C)C,0.996 ± 0.036
